# This is one part of the list.
# T1: UNK ZnF1-6 (called full-length) (human, UniProt Q9C0B0 30-357)
# T1 sequence: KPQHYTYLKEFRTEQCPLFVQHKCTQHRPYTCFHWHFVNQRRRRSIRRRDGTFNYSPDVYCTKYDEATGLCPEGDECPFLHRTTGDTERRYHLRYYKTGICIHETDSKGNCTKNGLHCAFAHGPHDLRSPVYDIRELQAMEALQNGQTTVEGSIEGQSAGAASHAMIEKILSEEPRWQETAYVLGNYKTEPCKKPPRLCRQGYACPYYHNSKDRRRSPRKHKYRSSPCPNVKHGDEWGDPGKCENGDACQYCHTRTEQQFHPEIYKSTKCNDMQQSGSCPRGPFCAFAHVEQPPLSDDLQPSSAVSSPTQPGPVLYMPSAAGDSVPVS
# B1: chr17:49053040:49053141:+|3pUTR|ENSG00000159217|unk|total|mutant (ssRNA)
# RNA: GGGAGUUCUACAGUCCGACGAUCCUCAGCUCCUGUGAGGGGUCUGGUCCGGAGAGAGCCAUUUUUAAGGACAGGGAGUUUUACCGCCCUUUUCUACUUUCCUCCCCUCCUCCCAGUCCUUAUCAAUCUUUUUUCCUUUUUCCUCAACAGAGGAUUGAGCAUCA
# B2: chr4:25747873:25747886:-|3pUTR|ENSG00000091490|msi1_unk|total|mutant (ssRNA)
# RNA: GGGAGUUCUACAGUCCGACGAUCCCGCAGUUAUAAGGCACCUUGAAAUAAAUUGUUUGUGCCUGGAAAUGCAGGGAGGGCAACCGCUUUGUAAAUUGGUUUACAUUUUUCUCCUUGAAUUUUUCCCGGGUCCCCGUGCUUCCGCAACAGAGGAUUGAGCAUCA
# B3: chr20:3963869:3963970:-|CDS|ENSG00000101236|unk|FALSE|bound_elsewhere (ssRNA)
# RNA: GGGAGUUCUACAGUCCGACGAUCAAUCUGCCUCUCAACAUAUAUAUUGUGGUUUUUGGUACUGCUAUAUUUGUCUUCAUCCUUAGUUUACUCUUCUGUUGCUACUUGAUUAGGUAACCAAUUUUCAUUCUAUGUUACUUCAAACAACAGAGGAUUGAGCAUCA
# B4: chr20:31664451:31666086:-|three_prime_utr|ENSG00000171552|control|control|control (ssRNA)
# RNA: GGGAGUUCUACAGUCCGACGAUCAUGCAGCCCAUGCCCACCUGCCCAUCACAGGGUUGGGCCCAGAUCUGGUCCCUUGCAGCUAGUUUUCUAGAAUUUAUCACACUUCUGUGAGACCCCCACACCUCAGUUCCCUUGGCCUCACAACAGAGGAUUGAGCAUCA
# B5: chr17:82078764:82078865:-|3pUTR|ENSG00000169710|msi1_unk|total|mutant (ssRNA)
# RNA: GGGAGUUCUACAGUCCGACGAUCCCGUGGGGUCUGCGCUUGGUCUUUCUGUGCUUGGAUUUGCAUAUUUAUUGCAUUGCUGGCCGAGACCCCCAGGCCUGUCCACCCUGCCAAGACUCCUCAGGCAGCGUGUGGGUCCCGCACCAACAGAGGAUUGAGCAUCA
# B6: chrX:131089436:131089558:+|3pUTR|ENSG00000147256|unk|total|mutant (ssRNA)
# RNA: GGGAGUUCUACAGUCCGACGAUCGGGAAACCUCAAGUGCCGGUCUAAUCCGUGUUUCUGGGAUCCAAAGUCCGAGGAAAAUUCCGAUUUUAUUGCCUGGAUCUGCUUUAAAGACAAUUGGUGUUUACACCCUCUUGUCAGCAACAACAGAGGAUUGAGCAUCA
# B7: chr10:69104613:69104714:+|3pUTR|ENSG00000122862|unk|FALSE|unique (ssRNA)
# RNA: GGGAGUUCUACAGUCCGACGAUCACAUAUUUUACAGGGUGGAGUGUACUAUAUACUAUUACCUUUGAAUGUGUUUGCAGAGCUAGUGGAUGUGUUUGUCUACAAGUAUGAUUGCUGUUACAUAACACCCCAAAUUAACUCCCACAACAGAGGAUUGAGCAUCA
# B8: ENSG00000156687:stop:overlap|stop_codon|ENSG00000156687|stop_codon|NA|stop_codon (ssRNA)
# RNA: GGGAGUUCUACAGUCCGACGAUCACAUUUCAGAAUCCCAGCUUGAUGAAGCCGACUUCAACUACAGCAGGCAAAAUGGACUCUAGUCCACUUCCUCCCAUGAGACAGAGUGAUGGCCAGCUUGGGGACAUUUGCUUUAAAUGGCAACAGAGGAUUGAGCAUCA
# B9: chr7:5606511:5606625:+|3pUTR|ENSG00000075618|msi1_unk|FALSE|overlapping (ssRNA)
# RNA: GGGAGUUCUACAGUCCGACGAUCGGGUGUCUUGGUCUUUUAUUUUUUGUAAGUGUCAUUUGUAUAACUCUAAACGCCCAUGAUAGUAGCUUCAAACUGGAAAUAGCGAAAUAAAAUAACUCAGUCUGCAGCCCCAGGCCGGCCCAACAGAGGAUUGAGCAUCA
# B10: chr1:230709994:230710823:-|CDS|ENSG00000135744|control|control|control (ssRNA)
# RNA: GGGAGUUCUACAGUCCGACGAUCAAGGUCCUGUCUGCCCUGCAGGCUGUACAGGGCCUGCUAGUGGCCCAGGGCAGGGCUGAUAGCCAGGCCCAGCUGCUGCUGUCCACGGUGGUGGGCGUGUUCACAGCCCCAGGCCUGCACCAACAGAGGAUUGAGCAUCA
# B11: chr19:12699869:12699961:-|3pUTR|ENSG00000105576|msi1_unk|FALSE|overlapping (ssRNA)
# RNA: GGGAGUUCUACAGUCCGACGAUCGAGGGUGGGGGUGUAGUUACUUCCCAGUUGGCCAGAAAACUGGGCCUUGCAGACCCCCUUAGCAUUUUUUCCCUUUUUUUCCUUCCCUGCUUUCUACUUCUUUGGGGAGCCCCUUGUGUUCAACAGAGGAUUGAGCAUCA
# B12: chr22:27980698:27980799:-|3pUTR|ENSG00000100154|unk|total|mutant (ssRNA)
# RNA: GGGAGUUCUACAGUCCGACGAUCUAACCAUUAAUUUAUUUUAUAAAGAAAGGAAAUGCUGAAAGUCGUAUCCGUACUGAGUUCCGUUGGAGAAUUCCGAUAAGUAAGUAUCUUUCCGGUAAUUCUAAAAUUAAAAUCCUACCCCAACAGAGGAUUGAGCAUCA
# B13: ENSG00000070961:be:win_6151|3pUTR|ENSG00000070961|bound_else_gene|NA|bound_elsewhere_windowed (ssRNA)
# RNA: GGGAGUUCUACAGUCCGACGAUCCAAUCACUUUUUCUCUUUUAUCCUCUAACCAAAAAAUUGUUUAAUUUUGCAUCCCAAAUGUUUUUAAUCUUUGUAUAUUUUUUAAAAAUCCUUUUCUCCUCAUCAUUGCCUUUUUUGUGGCAACAGAGGAUUGAGCAUCA
# B14: chr19:10683396:10683509:+|CDS|ENSG00000129351|unk|FALSE|bound_elsewhere (ssRNA)
# RNA: GGGAGUUCUACAGUCCGACGAUCGUUCCAAGGUGCUGGUUCCAACAAAAAGGUGGCGAAGGCCUACGCUGCUCUUGCUGCCCUAGAAAAGCUUUUCCCUGACACCCCUCUCGCCCUUGAUGCCAACAAAAAGAAGAGAGCCCCCAACAGAGGAUUGAGCAUCA
# B15: chr9:14618660:14618761:-|3pUTR|ENSG00000175893|msi1|FALSE|unique (ssRNA)
# RNA: GGGAGUUCUACAGUCCGACGAUCUUAGCUUUCCACAGGGAUUUCUUGAAAUGCUUUUGUUAUUAAACUCAAAAGGCAGUGAUUAGGAUGAAAUAAUUGUACAUAAUUUAUUUUAGUACUGACAGUGUUACAGAUUCUAAUUUACAACAGAGGAUUGAGCAUCA
# B16: chr3:17009782:17009883:+|CDS|ENSG00000154822|unk|FALSE|unique (ssRNA)
# RNA: GGGAGUUCUACAGUCCGACGAUCAAUUCAAUGGUUGAGGGUUCAGAACUCAAAAAGGUUCGCUCCAACUCUAGAAUUUAUCAUAGGUACUUUUUACUGGAUGCUGACAUGCAGAGCCUAAGGUGGGAGCCAUCUAAGAAGGAUCAACAGAGGAUUGAGCAUCA
# B17: chr1:183252010:183252124:-|3pUTR|ENSG00000157064|unk|FALSE|unique (ssRNA)
# RNA: GGGAGUUCUACAGUCCGACGAUCUCUUUGUUCACUCCCUGUAGAACUUGGAUGAAAUCAGUGUCCAUGGUUCUUUAUGUUUGUAGUCUUGAUGUGCUCCUGUGGUAUUACUUCCCCUCUGAUAGGACAUUGUAGCCAGCCUCACAACAGAGGAUUGAGCAUCA
# B18: ENSG00000136451:be:win_2851|3pUTR|ENSG00000136451|bound_else_gene|NA|bound_elsewhere_windowed (ssRNA)
# RNA: GGGAGUUCUACAGUCCGACGAUCAUUUUAUCUCUGUACAUAAAGUAGAAACCAAAAGCUAGGGAAACAGAUACUCUUUACACCAUCAUGCCACGCAUUGUUUUUAAAGCAUUGCGUUAAAAAAAAAAUUAACUAAACCAAGAUCAACAGAGGAUUGAGCAUCA
# B19: chr16:57253408:57253449:+|3pUTR|ENSG00000102931|msi1_unk|FALSE|overlapping (ssRNA)
# RNA: GGGAGUUCUACAGUCCGACGAUCUGUGUGGUAGAUUACUUAUCAGAAAACAUAUAUGUCAUCUCUAGAACGAAGAAAAAGCAUAGUAGUUCAAUUCCCAGUGUGUCCCUUUGAUUUUUUUUUUUUAAUAGUAAAAAUAAGAAUCAACAGAGGAUUGAGCAUCA
# B20: chr8:41262982:41263083:-|3pUTR|ENSG00000104332|msi1|total|mutant (ssRNA)
# RNA: GGGAGUUCUACAGUCCGACGAUCCAACCGGGCCCUCUCUCUGCGGCAGAGUCCUCCGUGGAGGGGUUUACCUGGAACAUCCGCCGUUACCACAGAAUACGGAAGAGCAGGUGACUGUGCUGUGCAGCUCUCUAAAUGGGAAUUCAACAGAGGAUUGAGCAUCA
# B21: chr11:111720585:111720689:+|CDS|ENSG00000170145|unk|total|mutant (ssRNA)
# RNA: GGGAGUUCUACAGUCCGACGAUCGUCUGUUCAGAGGGACCUGAACUUUCUGGAAGACAACCCUUCCCUUAAGGACAUCAUGUCCGCCAAUCAGCCUUCACCCCGCAUGACAUCUCCCUUCAUAAGCCUGAGACCUACCAACCCCAACAGAGGAUUGAGCAUCA
# B22: chr7:88197266:88197367:+|3pUTR|ENSG00000008277|unk|FALSE|unique (ssRNA)
# RNA: GGGAGUUCUACAGUCCGACGAUCCAAAACAUGUGAUAUCCCUUUAACCUGUGCACAGUCUGGAGGCAGUUUUAUUGAGUGAGUAGUUGAGUGAGAGAACAAAAUGCCCAGCAAAACUUCUGGCCUCCACAGUUUGCUGAUGCACAACAGAGGAUUGAGCAUCA
# Target: T1, UNK ZnF1-6 (called full-length)
# Experiment: nsRBNS (natural sequence RNA bind-n-seq); RBNS binding buffer (assumed for nsRBNS): 25 mM Tris pH 7.5, 150 mM KCl, 3 mM MgCl2, 0.01% Triton X-100, 500 ug/ml BSA, 20 U/ml SUPERase-In, 4 C; UNK is unkempt and MSI1 is Musashi-1; names of the RNAs are library labels; protein concentration not given here; high values mean tight binding
row,Binder,binding signal
1,B1,1.7 enrichment R
2,B2,0.589 enrichment R
3,B3,2.08 enrichment R
4,B4,1.85 enrichment R
5,B5,0.812 enrichment R
6,B6,0.348 enrichment R
7,B7,0.406 enrichment R
8,B8,0.56 enrichment R
9,B9,1.39 enrichment R
10,B10,0.572 enrichment R
11,B11,15.5 enrichment R
12,B12,0.76 enrichment R
13,B13,4.78 enrichment R
14,B14,2.51 enrichment R
15,B15,0.961 enrichment R
16,B16,1.84 enrichment R
17,B17,0.763 enrichment R
18,B18,3.17 enrichment R
19,B19,1.9 enrichment R
20,B20,0.654 enrichment R
21,B21,0.878 enrichment R
22,B22,0.667 enrichment R

# From paper PMC12136788
